From paper PMC7819943, “Rice protein-binding microarrays: a tool to detect cis-acting elements near promoter regions in rice”
The other results are listed elsewhere or left out.

molecular target: T1, OsWOX13 (Oryza sativa, UniProt Q5QMM3 1-267); assay: protein-binding microarray (RPBM); PBS, 2% BSA, 51.3 ng/ul salmon testes DNA, 50 uM zinc acetate, 200 nM TF, 25 C, 1 h; high values mean tight binding; conditions: protein: recombinant; tags: N-terminal polyhistidine and DsRed monomer fusion (pET32a); label: CyDye5-dUTP incorporated in the synthesized complementary strand; 3' TTTTT single-stranded linker to array surface; dsDNA, one strand shown
T1 sequence: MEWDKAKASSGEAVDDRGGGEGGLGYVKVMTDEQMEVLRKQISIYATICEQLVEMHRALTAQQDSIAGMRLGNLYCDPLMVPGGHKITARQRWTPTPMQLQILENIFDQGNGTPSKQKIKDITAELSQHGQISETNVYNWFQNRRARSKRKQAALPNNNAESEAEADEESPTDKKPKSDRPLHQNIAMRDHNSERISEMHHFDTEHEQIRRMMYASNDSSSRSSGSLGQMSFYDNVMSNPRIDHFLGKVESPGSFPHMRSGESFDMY
In short: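 Ni–NTA purification followed expression in E. coli BL21-CodonPlus of transcription factors fused N-terminally to a polyhistidine tag and DsRed. At 200 nM in PBS with 2% BSA, salmon testes DNA and 50 µM zinc acetate, the protein was incubated for 1 h at 25 °C with a custom Agilent array that had been primer-extended with Cy5-dUTP and blocked with 2% BSA. After washing, the array was read on an Axon 4000B scanner. The binding signal is per-feature fluorescence intensity in arbitrary units.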

Sequence	binding signal
AGTTTATTGCCAATTTTAATAAGTACATATAAAATCTTGCCGGAGTCACCTAGTGCAG	14600 fluorescence intensity (a.u.)
CAATTAACCTTTACAGGTTAATTTTGTTTGATCAATTGCACGGAGTCACCTAGTGCAG	4000 fluorescence intensity (a.u.)
GATATCAATCTTTGTCCTAATGAACAGTAATGATGGTCTCCGGAGTCACCTAGTGCAG	7430 fluorescence intensity (a.u.)
GCCTAAATAGACTCAATTCAGCCTTATATAAGTCAAAGAACGGAGTCACCTAGTGCAG	4990 fluorescence intensity (a.u.)
AATATGAATGATTAAAATTCTTCATTTTAGACATACCTCACGGAGTCACCTAGTGCAG	22200 fluorescence intensity (a.u.)
TGATGATTGTTAGTGGATGATGATGTGGCATATTTGCATGCGGAGTCACCTAGTGCAG	44300 fluorescence intensity (a.u.)
ATGCCTCTAATTTCATGTTTAATAATATTGTAATACATATCGGAGTCACCTAGTGCAG	3940 ± 125 fluorescence intensity (a.u.)
TGACAAACTCCACCTTAATTAAATATTGGTCTCGTTTCACCGGAGTCACCTAGTGCAG	4330 fluorescence intensity (a.u.)
AGAAAATTGGATGATGGACGTCCTTTTGGTTTGCTAGCTTCGGAGTCACCTAGTGCAG	25400 fluorescence intensity (a.u.)
GATAATTTGATGCTAGTTTGATTCCAAGCTCCATTGCATCCGGAGTCACCTAGTGCAG	28000 fluorescence intensity (a.u.)
CCGAGCTGATTAACTATGAAAGTCAAGGCCAAGTCAATATCGGAGTCACCTAGTGCAG	8800 fluorescence intensity (a.u.)
AATGACATTACACTCAAGTTCAATCAAATCATAACTTCACCGGAGTCACCTAGTGCAG	7260 fluorescence intensity (a.u.)
TCTAATTTGACAGAAAACATCCAAGGAAATCTTGCAAATTCGGAGTCACCTAGTGCAG	31700 fluorescence intensity (a.u.)
TAATGATGGAAACTTCTCCTACTTGGCAGTATGTTATGGTCGGAGTCACCTAGTGCAG	4550 fluorescence intensity (a.u.)
GTTATTTATTGATTAAACCCAACATCTACATAAACCACATCGGAGTCACCTAGTGCAG	15400 fluorescence intensity (a.u.)
ATCTGTAATTTATTTTATTATTAGTCTACGTTTAATATTTCGGAGTCACCTAGTGCAG	8970 fluorescence intensity (a.u.)
GGGCGTGTGGTTGAGAACTTGATTGGGATGATGATGAGACCGGAGTCACCTAGTGCAG	12200 fluorescence intensity (a.u.)
AAAATAAATTTGACTGTGAATATACGTTAACTGGTCATAGCGGAGTCACCTAGTGCAG	23100 fluorescence intensity (a.u.)
TTAAATGCAACCAGAAATTTAATTGAATTGAGCTGGAAGCCGGAGTCACCTAGTGCAG	9630 fluorescence intensity (a.u.)
CCCGAATAAACTGAGATGTTGGTTCAAGAATTACCATCCTCGGAGTCACCTAGTGCAG	3750 fluorescence intensity (a.u.)
CTTGTCCGCTTAATTAAATTGATACCATTTTCGTTCTTGTCGGAGTCACCTAGTGCAG	23700 fluorescence intensity (a.u.)

Sequence	binding signal
TATATATATATATATATATGTATGTAGAGAGATTATTTTACGGAGTCACCTAGTGCAG	7560 fluorescence intensity (a.u.)
TCCAACTCCAATCAGTACAAATATCTCAGAACCATGGCACCGGAGTCACCTAGTGCAG	7500 fluorescence intensity (a.u.)
TCACATATAGAATATGATTGGGGTCCAGCCCAAGAGAGTCCGGAGTCACCTAGTGCAG	5480 fluorescence intensity (a.u.)
AATAAAATTAGATGATGAATGATTGTAATTGGTTAAGATACGGAGTCACCTAGTGCAG	26100 fluorescence intensity (a.u.)
TTTTAAACTGTCAGTAGAGTAAACTATGGGCTAGACAGCACGGAGTCACCTAGTGCAG	4060 fluorescence intensity (a.u.)
ATACAATTAATATAATATATGGTCCCACGTGTTATATGCGCGGAGTCACCTAGTGCAG	7130 fluorescence intensity (a.u.)
TTGACATAATATAATCATGTGATATCTTATTGTAAAGATTCGGAGTCACCTAGTGCAG	10400 fluorescence intensity (a.u.)
CTAAACAGGCTCTAAGTTTGGACGCTCCAAAGAGTGGCCGCGGAGTCACCTAGTGCAG	7940 fluorescence intensity (a.u.)
TTAATTAATCACCTCCTAATGATCTGCCTCATTTTGCGTGCGGAGTCACCTAGTGCAG	17600 fluorescence intensity (a.u.)
CCGAGATAATTACGTTGACTGACACATGGGGTCCAATCCACGGAGTCACCTAGTGCAG	39900 fluorescence intensity (a.u.)
AAAATTAATTTATAGACAATTTTGTTATATATTTATTCATCGGAGTCACCTAGTGCAG	29700 fluorescence intensity (a.u.)
AATTGATCTGCTAATGATTAATTGTTATGCATATGTCAGTCGGAGTCACCTAGTGCAG	19500 fluorescence intensity (a.u.)
TTTGTAATAATTAACACTAATGATTTATGTGCTAATGGTTCGGAGTCACCTAGTGCAG	45400 fluorescence intensity (a.u.)
AATAAATTCATTGATCTTTCAGCTCCTTGACAGCACTGCACGGAGTCACCTAGTGCAG	3410 fluorescence intensity (a.u.)
ACTAACTAGCCTGTTTGTGAAAATCACTTATAGTAGGCGGCGGAGTCACCTAGTGCAG	3220 fluorescence intensity (a.u.)
CTAATTGCATAGTGATCGATCGATCTGTATAGATGGTGGTCGGAGTCACCTAGTGCAG	12200 fluorescence intensity (a.u.)
TTCAAACTATACATAATTGTACTATCGTAGAACTATTTGTCGGAGTCACCTAGTGCAG	8320 fluorescence intensity (a.u.)
ACCAAATGGAACGAAAATGGCATTTTGGTGGACACCTGATCGGAGTCACCTAGTGCAG	4200 fluorescence intensity (a.u.)
ATAATTAGATGATAAAACATAAATAATATTTAATGTTTAACGGAGTCACCTAGTGCAG	27600 fluorescence intensity (a.u.)
CAAGATCACTCTTCAATTAATTTATGGTGACTGCATAGCGCGGAGTCACCTAGTGCAG	17700 fluorescence intensity (a.u.)
AGTCAAATTATAATCCAGTATGAATAAAGTATATTACTACCGGAGTCACCTAGTGCAG	7090 fluorescence intensity (a.u.)
